Our source for the cytotoxicity call and growth inhibition call values is the antibiotic and cytotoxicity screens of Wong et al. (2023).

One test has as its system HSkMC. Description: cytotoxicity call (relative viability < 0.9). The following applies: 10 µM.
The next test concerns HepG2. As to the kind of experiment: cytotoxicity call (relative viability < 0.9). The following applies: 10 µM.
In another test the test system is S. aureus RN4220. As to the kind of experiment: growth inhibition call (relative growth <= 0.2). The following applies: 50 µM.

SMILES strings stand for the structures. The list shows a part of the results.

Take `C[C@H](CO)N1C[C@H](C)[C@@H](CN(C)Cc2ccc(C(=O)Nc3ccccc3N)cc2)Oc2ccc(NC(=O)Cc3cn(C)c4ccccc34)cc2CC1=O`: the cytotoxicity call in the test on HSkMC and in the test on HepG2 was “inactive” throughout. Also, in the test on S. aureus RN4220, the growth inhibition call was “inactive”.

Take `C[C@@H]1CN([C@@H](C)CO)C(=O)c2c(c3ccccc3n2C)-c2ccccc2CO[C@H]1CN(C)C(=O)Nc1ccc(F)cc1`: the cytotoxicity call with HSkMC and in the test on HepG2 was “inactive” in each case. Further, the growth inhibition call in the test with S. aureus RN4220 was “inactive”.

`C[C@H]1CN([C@@H](C)CO)C(=O)c2cccc(NC(=O)Nc3ccccc3)c2O[C@@H]1CN(C)CC1CCCCC1`: the cytotoxicity call in the test with HSkMC and in the test with HepG2 was “inactive” in each case. The growth inhibition call with S. aureus RN4220 is “inactive”.

With `COc1ccccc1CN(C)C[C@H]1OCc2ccccc2-c2c(n(C)c3ccccc23)C(=O)N([C@H](C)CO)C[C@H]1C`, the cytotoxicity call with HSkMC and in the test with HepG2 was “inactive” throughout. Further, the growth inhibition call with S. aureus RN4220 is “inactive”.

For the compound `COc1cccc(S(=O)(=O)N[C@@H]2CC[C@H](CCn3cc(-c4ccccc4OC)nn3)O[C@H]2CO)c1`, the cytotoxicity call in the test on HSkMC and with HepG2 was “inactive” in each case. For the same compound, in the test with S. aureus RN4220, the growth inhibition call is “inactive”.

In the case of `Cc1noc(C)c1NC(=O)Nc1ccc2c(c1)C(=O)N([C@@H](C)CO)C[C@@H](C)[C@@H](CN(C)Cc1ccc(C(=O)O)cc1)OCCCC[C@H](C)O2`, the cytotoxicity call in the test on HSkMC and in the test with HepG2 was “inactive” in each case. Further, the growth inhibition call in the test with S. aureus RN4220 was “inactive”.

With `C[C@H](CO)N1C[C@H](C)[C@H](CN(C)C(=O)Nc2ccc(F)cc2)Oc2ccc(NC(=O)Nc3ccc(C(F)(F)F)cc3)cc2C1=O`, the cytotoxicity call in the test on HSkMC and in the test on HepG2 was “inactive” each time. Also, the growth inhibition call in the test on S. aureus RN4220 was “inactive”.

With `COc1ccc(S(=O)(=O)Nc2ccc3c(c2)C(=O)N([C@H](C)CO)C[C@H](C)[C@H](CN(C)S(=O)(=O)c2ccc(Cl)cc2)OCCCC[C@@H](C)O3)cc1`, the cytotoxicity call in the test with HSkMC and in the test with HepG2 was “inactive” throughout. The growth inhibition call with S. aureus RN4220 was “inactive”.

On to `O=C(C[C@@H]1C=C[C@H](NS(=O)(=O)c2ccc(F)cc2)[C@H](CO)O1)N1CCC(Cc2ccccc2)CC1`, for which the cytotoxicity call with HSkMC and in the test on HepG2 was “inactive” in each case. Further, the growth inhibition call in the test on S. aureus RN4220 was “inactive”.

Regarding `c1ccn(CCN2CCNCC2)c1`, the cytotoxicity call in the test with HSkMC and in the test with HepG2 was “inactive” throughout. In addition, the growth inhibition call in the test on S. aureus RN4220 is “inactive”.

As for `C=C[C@]1(C)C=C2CC[C@H]3C(C)(C)[C@H](O[C@@H]4O[C@@H](CO)[C@H](O)[C@H]4O)CC[C@@]3(C)[C@H]2C[C@@H]1O[C@@H]1O[C@H](CO)[C@@H](OC)[C@H](O)[C@H]1O`, the cytotoxicity call with HSkMC and with HepG2 was “inactive” each time. In the test with S. aureus RN4220, the growth inhibition call is “inactive”.

On to `C[C@H]1CN([C@@H](C)CO)C(=O)c2cccc(NC(=O)C3CCOCC3)c2O[C@@H]1CN(C)Cc1ccccc1`, for which the cytotoxicity call with HSkMC and in the test with HepG2 was “inactive” throughout. In the test with S. aureus RN4220, the growth inhibition call is “inactive”.

As for `CCOC[C@@H](O)CS(=O)(=O)c1ccccn1`, the cytotoxicity call in the test with HSkMC and in the test with HepG2 was “inactive” throughout. In addition, in the test on S. aureus RN4220, the growth inhibition call was “inactive”.

As for `CO[C@@H]1CN(C)C(=O)c2cc(NC(=O)C3CC3)ccc2OC[C@H](C)N(C(=O)C2CCOCC2)C[C@@H]1C`, the cytotoxicity call with HSkMC and in the test on HepG2 was “inactive” each time. Further, the growth inhibition call in the test with S. aureus RN4220 was “inactive”.

`C[C@@H]1CN([C@H](C)CO)C(=O)c2cc(NC(=O)Nc3ccccc3)ccc2O[C@H]1CN(C)Cc1ccc(Oc2ccccc2)cc1`: the cytotoxicity call in the test on HSkMC was “inactive”. Also, in the test on HepG2, the cytotoxicity call is “active”. Besides, the growth inhibition call in the test on S. aureus RN4220 is “inactive”.

For `COc1ccc(COC[C@]23N=C4Sc5ccc([N+](=O)[O-])cc5C(=O)N4[C@H](c4ccccc4O2)[C@H]3COC(=O)c2ccccc2)cc1`, the cytotoxicity call in the test on HSkMC and in the test on HepG2 was “inactive” throughout. Moreover, the growth inhibition call with S. aureus RN4220 was “inactive”.

Turning to `C[C@@H]1CCCCO[C@H](CN(C)S(=O)(=O)c2ccc(F)cc2)[C@H](C)CN([C@@H](C)CO)C(=O)c2cc(NC(=O)C3CCCCC3)ccc2O1`, the cytotoxicity call in the test on HSkMC and in the test on HepG2 was “inactive” in each case. In addition, the growth inhibition call in the test with S. aureus RN4220 was “inactive”.

For `C[C@@H]1CCCCO[C@H](CN(C)Cc2ccc(C(F)(F)F)cc2)[C@@H](C)CN([C@@H](C)CO)C(=O)c2cc(NC(=O)Nc3ccccc3)ccc2O1`, the cytotoxicity call with HSkMC is “inactive”. Also, the cytotoxicity call in the test on HepG2 was “active”. Further, the growth inhibition call in the test with S. aureus RN4220 is “inactive”.

As for `COCC(=O)Nc1ccc2c(c1)C(=O)N(C)C[C@H](OC)[C@H](C)CN(C(=O)Cc1ccccn1)[C@@H](C)CO2`, the cytotoxicity call in the test on HSkMC and in the test with HepG2 was “inactive” in each case. Moreover, the growth inhibition call in the test on S. aureus RN4220 is “inactive”.

`Cc1ccc(S(=O)(=O)Nc2ccc3c(c2)C(=O)N([C@@H](C)CO)C[C@@H](C)[C@@H](CN(C)S(=O)(=O)c2ccc(F)cc2)OCCCC[C@H](C)O3)cc1`: the cytotoxicity call in the test with HSkMC and with HepG2 was “inactive” throughout. Further, the growth inhibition call with S. aureus RN4220 is “inactive”.

As for `COc1ccc(S(=O)(=O)N(C)C[C@H]2Oc3ccc(NC(=O)Cn4cnnn4)cc3C(=O)N([C@@H](C)CO)C[C@@H]2C)cc1`, the cytotoxicity call in the test on HSkMC and in the test on HepG2 was “inactive” in each case. For the same compound, the growth inhibition call in the test with S. aureus RN4220 was “inactive”.

Take `CCCCCCCCCc1ccc(OCCOCCOCCOCCOCCOCCOCCOCCOCCO)cc1`: the cytotoxicity call in the test with HSkMC is “inactive”. In the test with HepG2, the cytotoxicity call is “active”. The growth inhibition call in the test with S. aureus RN4220 is “inactive”.

On to `[Cl][Ca][Cl]`, for which the cytotoxicity call in the test with HSkMC and in the test with HepG2 was “inactive” throughout. In addition, the growth inhibition call with S. aureus RN4220 is “inactive”.

On to `C[C@H]1CN([C@@H](C)CO)C(=O)c2cc(NS(=O)(=O)c3cccs3)ccc2O[C@@H]1CN(C)S(=O)(=O)c1cn(C)cn1`, for which the cytotoxicity call in the test on HSkMC and in the test with HepG2 was “inactive” in each case. Also, the growth inhibition call in the test on S. aureus RN4220 was “inactive”.

Regarding `O=C(C[C@H]1CC[C@H]2[C@@H](COC[C@H](O)CN2CC2CCOCC2)O1)N1CCOCC1`, the cytotoxicity call with HSkMC and in the test on HepG2 was “inactive” throughout. The growth inhibition call with S. aureus RN4220 was “inactive”.

For the compound `C[C@@H]1CN([C@@H](C)CO)C(=O)c2cc(NC(=O)CCCCCC(=O)Nc3ccccc3N)ccc2O[C@H]1CN(C)Cc1ccc(C(F)(F)F)cc1`, the cytotoxicity call in the test on HSkMC and in the test with HepG2 was “inactive” each time. The growth inhibition call in the test on S. aureus RN4220 is “inactive”.

For the compound `Cc1cc(C(=O)N2CCNC(=O)C2(C)C)no1`, the cytotoxicity call in the test on HSkMC (human skeletal muscle cells) and in the test with HepG2 was “inactive” in each case. Moreover, in the test on S. aureus RN4220, the growth inhibition call is “inactive”.
